Some of the results follow.
T1: UNK ZnF1-6 (called full-length) (human, UniProt Q9C0B0 30-357)
T1 sequence: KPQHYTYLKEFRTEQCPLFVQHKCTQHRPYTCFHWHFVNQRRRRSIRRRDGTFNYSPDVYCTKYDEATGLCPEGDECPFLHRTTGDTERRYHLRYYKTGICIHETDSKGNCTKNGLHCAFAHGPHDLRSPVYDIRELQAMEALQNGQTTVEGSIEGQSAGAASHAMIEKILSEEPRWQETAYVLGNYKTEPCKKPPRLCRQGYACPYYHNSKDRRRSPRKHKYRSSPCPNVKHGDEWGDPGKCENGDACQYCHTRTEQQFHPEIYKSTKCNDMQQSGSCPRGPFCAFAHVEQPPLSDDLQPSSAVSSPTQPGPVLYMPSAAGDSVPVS

B1: ENSG00000121579:stop:overlap|stop_codon|ENSG00000121579|stop_codon|NA|stop_codon (ssRNA)
RNA: GGGAGUUCUACAGUCCGACGAUCUCAGCUACAAUGACAAGUUCUACAAGGAUGUGCUGGAGCCUAUUUCAAUGAUAUUGCUGUAGGUGCAGUAUGCUGUAGGGUGGAUCAUUCACAGAAUCAGAAGAGACUUUACAUCAUGACCAACAGAGGAUUGAGCAUCA
B2: chr2:1632960:1633155:-|3pUTR|ENSG00000130508|msi1|total|mutant (ssRNA)
RNA: GGGAGUUCUACAGUCCGACGAUCGUCCAUUUUUCCGGUAUCCGAUAUGGCAGAAAAACCAUUUCCACUAUGCAAAGUUCUUUCCGACGUCAGUGAAAAUCAACUCUCAUACCUCAUGGUCUCUCUUUAAUUGACCAAAACCUUCAACAGAGGAUUGAGCAUCA
B3: chr13:30205178:30205279:-|3pUTR|ENSG00000102781|msi1|total|mutant (ssRNA)
RNA: GGGAGUUCUACAGUCCGACGAUCUUGGCAGUUUCUCUAACGACUCUGUACCGCUUCUGGCUUCUACUACUGAAACAAGAGUUCCGAUCACUGAUGGAGAGGCACCGUAAUCUGUUUGUGCUUUGGAAAAAUAUAUAAAAGUUUCAACAGAGGAUUGAGCAUCA
B4: chr2:223975255:223975490:-|3pUTR|ENSG00000135919|msi1|FALSE|bound_elsewhere (ssRNA)
RNA: GGGAGUUCUACAGUCCGACGAUCUUUAAAUUCUUUUCCCCCAUCCCCCUCCAAAGUCUUGAUAGCAAGCGUUAUUUUGGUGGUAGAAACGGUGAAAUCUCUAGCCUCUUUGUGUUUUUGUUGUUGUUGUUGUUGUUGUUUUAUCAACAGAGGAUUGAGCAUCA
B5: chr12:85264020:85264122:+|3pUTR|ENSG00000133640|unk|FALSE|unique (ssRNA)
RNA: GGGAGUUCUACAGUCCGACGAUCCAUAGUAUUUCAGUUACUUUCCACAGCUGUGUUGCUCAAUAAUAGCAUCCAGUGAACUUUAGUAUUUUUUUGUUUUUCCUGUAUUUUAUUAAAAUAUUUCAUCUAGAGAUAACUGAAGUGCAACAGAGGAUUGAGCAUCA
B6: ENSG00000070961:be:win_1651|CDS|ENSG00000070961|bound_else_gene|NA|bound_elsewhere_windowed (ssRNA)
RNA: GGGAGUUCUACAGUCCGACGAUCGGACUUCUUUUGGAUUUAAAACGGGAUUAUCAGGAUGUUAGAAAUGAAAUACCAGAAGAAGCACUGUACAAAGUCUACACCUUCAAUUCUGUUAGGAAGUCCAUGAGUACUGUCCUGAAACAACAGAGGAUUGAGCAUCA
B7: chr2:227144361:227144754:-|three_prime_utr|ENSG00000081052|control|control|control (ssRNA)
RNA: GGGAGUUCUACAGUCCGACGAUCGGCAAUGAUGGCAGCCAGAGAGAGGAAAGCAUGGAUCUUGUCACUGAUGACAAGUCGGCUAGUAGGAGCAGCCUCAUAGAAAUAAAAAGUAGCUUUCUGGAAUUAAUUCCUUUACUCUUUCAACAGAGGAUUGAGCAUCA
B8: chrX:129805617:129805718:-|3pUTR|ENSG00000188706|msi1|FALSE|unique (ssRNA)
RNA: GGGAGUUCUACAGUCCGACGAUCUCUUUUCCCAUUAGAUAUAUGUAAGUAGUUGUAGUAGAGAUAAUAAUUGACAUUUCUCGUAGACUACCCAGAAACUUUUUUAAUACCUGUGCCAUUCUCAAUAAGAAUUUAUGAGAUGCCCAACAGAGGAUUGAGCAUCA
B9: chr7:157269180:157269282:+|3pUTR|ENSG00000009335|unk|total|mutant (ssRNA)
RNA: GGGAGUUCUACAGUCCGACGAUCAUUUCCGGUUGUUUUAUGUUGAAUGUUCUAUAUCUUAUCCGUUAAUUUGUAUAUUUUAUCCGUAUUUUGGAAACCGCAUAUCUGAGACUGAAGAGAAAUUGACAAUUCACUUAUUUGUGGCAACAGAGGAUUGAGCAUCA
B10: chr18:54155150:54155251:-|3pUTR|ENSG00000134046|unk|FALSE|unique (ssRNA)
RNA: GGGAGUUCUACAGUCCGACGAUCUUUCCACUGGCUUUUGCCUGUAAGAAAAAAAAUGUACCCGAGCACAUAGAGCUUUUUAAUAGCACUAACCAAUGCCUUUUUAGAUGUAUUUUUGAUGUAUAUAUCUAUUAUUCAAAAAAUCAACAGAGGAUUGAGCAUCA
B11: chr12:57626096:57626197:-|3pUTR|ENSG00000135454|msi1|FALSE|unique (ssRNA)
RNA: GGGAGUUCUACAGUCCGACGAUCGUGUCUCUGCAAUGCUGUGGGCACAAAAGAAGGGGCACCAGAGUCCCUGUGCAAACACCUAGACUCACUUCAUGGAUUCCAAAGCUCUCAGCUUCAUUUUAUUAGUUACGUUAGGUAAGGCAACAGAGGAUUGAGCAUCA
B12: chr15:44524374:44524475:+|3pUTR|ENSG00000137770|msi1|FALSE|unique (ssRNA)
RNA: GGGAGUUCUACAGUCCGACGAUCUAUCUAUCUCAGAUCGAAUACAUAUAGUAGGUAGGCUAAAACAGAAGAGUCUUUAGAACUAGUGCAACUCCAGUGAAAUUUUUUAUGUACAGGACAUCUGCAGUUUAUAAAGAAUUCUGUCAACAGAGGAUUGAGCAUCA
B13: chr12:24811411:24811512:-|3pUTR|ENSG00000060982|msi1|total|mutant (ssRNA)
RNA: GGGAGUUCUACAGUCCGACGAUCGUGAAGAACUCUAUAUUUGUAUGUUGAGAGGGCAUGGAAUAAUUGUAUUUUGCUGGCAACCGACACAUUCUUUAUUAUUUGCAGAUUCCUCAUCAAAUCUGUAAUUAUGCACAGUUUCUGCAACAGAGGAUUGAGCAUCA
B14: chr6:11183581:11183682:-|3pUTR|ENSG00000111859|msi1|total|mutant (ssRNA)
RNA: GGGAGUUCUACAGUCCGACGAUCAAAACAAGAAUGCAUGAUCUCAGAGUGAUUAAAAAAAAAUCAGUGGAAAUAAAUGAUCACCGAAGGUGCUUUUCAAAACAACUGCUAUUAUAAUUCUCAAAGUCCUACUCUGCCAAAAGACAACAGAGGAUUGAGCAUCA
B15: ENSG00000122008:stop:overlap|stop_codon|ENSG00000122008|stop_codon|NA|stop_codon (ssRNA)
RNA: GGGAGUUCUACAGUCCGACGAUCGAGCAUUAUUGGCUUUUUACAGGCUGGAAACCAAGCCCUGUCAGCCACUGAGUGUACAUUAGAGAAAACUGACAAAGAUAAGUUUGUAAAACCUCUAGAAAUGUCUCAUAAGAAGAGUUUCAACAGAGGAUUGAGCAUCA
B16: chr3:120396629:120396730:-|3pUTR|ENSG00000163430|msi1|FALSE|unique (ssRNA)
RNA: GGGAGUUCUACAGUCCGACGAUCGCCUUCAUUUCUAGGAGUGCUUUAAGAGAAACUGUAAAUGGUGCUCUGGGGCUGGAGGCUAGUAAGGAAACUGCAUCACGAUUGAAAGAGGAACAGACCCAAAUCUGAACCUCUUUUGAGCAACAGAGGAUUGAGCAUCA
B17: chr11:72288215:72288316:-|3pUTR|ENSG00000162129|unk|FALSE|unique (ssRNA)
RNA: GGGAGUUCUACAGUCCGACGAUCACCCAGCUAAUUUUUUUUGUAUUUUUAGUAAAGACGGGGUUUCACCAUGUUUGCCAGGCUAGUCUCAAACUCCUGGUCUCAAGUGAUCCACCCACCUUGGCCUCCCAGAGUGCUGAGAUUCAACAGAGGAUUGAGCAUCA
B18: ENSG00000124766:be:win_2051|3pUTR|ENSG00000124766|bound_else_gene|NA|bound_elsewhere_windowed (ssRNA)
RNA: GGGAGUUCUACAGUCCGACGAUCACGCAGGCGAAUUCCCGUUUGGGGCUUUUUUUUCCUCCCUCUUUUCCCCUUGCCCCCUCUGCAGCCGGAGGAGGAGAUGUUGAGGGGAGGAGGCCAGCCAGUGUGACCGGCGCUAGGAAACAACAGAGGAUUGAGCAUCA
B19: chr13:42321371:42321394:+|3pUTR|ENSG00000023516|msi1_unk|total|mutant (ssRNA)
RNA: GGGAGUUCUACAGUCCGACGAUCUUCUGUUUAUGGUGUAAUCAUUCUGAGGUGAGGCUUUUCUUAUUUCCUUUGCAUUUUGCCCGAGCUGUGCUGAGUUCAGCAUUUGCUUAUUUAACCACUACAUAAUGACAGACCAGUUAUCAACAGAGGAUUGAGCAUCA
B20: chr5:154419581:154419682:+|3pUTR|ENSG00000164574|msi1|FALSE|unique (ssRNA)
RNA: GGGAGUUCUACAGUCCGACGAUCAAAGGGAUGGGUGUGUCCUCUGAGCACUCUGGCAUUUGUCAUUGCUGAGCCCAUAUCAGUAGGUCCUGGGACUUGACAAAGUAUGUGGGAGGGGAAGGAAGGACAGAACUUGACUGGCUCCAACAGAGGAUUGAGCAUCA
B21: chr9:33053202:33053303:-|CDS|ENSG00000122692|msi1|FALSE|unique (ssRNA)
RNA: GGGAGUUCUACAGUCCGACGAUCCCUAAAACUUUAGAAAUUUUUAUACCUAAAAAAGGUUUAUAACUUAAAUUUCUGUGUGGUAGAUCUGGAAUAUGAAGACCACAGAAUGUUCAAAUACCUUUAAAUCCCUGGGCAGCACCGCAACAGAGGAUUGAGCAUCA
B22: chr14:49622334:49622435:+|CDS|ENSG00000168282|unk|FALSE|unique (ssRNA)
RNA: GGGAGUUCUACAGUCCGACGAUCCAAUACUUGACUGUAUCUUGUCUUCCAAAAUUCUGGAAAGUGCUGGUUCCUCAAAUUCCUAGGAUCUUUCAUGCUGGAGACUGUGGUAUGCAUCACAAGAAAACCUGUAGACCAUCCACUCAACAGAGGAUUGAGCAUCA

target: T1, UNK ZnF1-6 (called full-length); assay: nsRBNS (natural sequence RNA bind-n-seq); RBNS binding buffer (assumed for nsRBNS): 25 mM Tris pH 7.5, 150 mM KCl, 3 mM MgCl2, 0.01% Triton X-100, 500 ug/ml BSA, 20 U/ml SUPERase-In, 4 C; UNK is unkempt and MSI1 is Musashi-1; names of the RNAs are library labels; protein concentration not given here; high values mean tight binding

Row | Binder | binding signal [enrichment R]
1 | B1 | 0.743
2 | B2 | 0.41
3 | B3 | 0.42
4 | B4 | 2.44
5 | B5 | 10
6 | B6 | 0.323
7 | B7 | 3.24
8 | B8 | 101
9 | B9 | 0.843
10 | B10 | 5.14
11 | B11 | 1.72
12 | B12 | 0.782
13 | B13 | 0.955
14 | B14 | 0.354
15 | B15 | 0.433
16 | B16 | 0.489
17 | B17 | 3.92
18 | B18 | 0.64
19 | B19 | 0.626
20 | B20 | 0.805
21 | B21 | 1.04
22 | B22 | 0.453

Reference: article PMC12136788
